The whole screen tested about 150,000 compounds, of which about 540 (0.36%) showed an effect of 50% or more. The list shows a part of the results.

The experiment relates to Plasmodium falciparum. Kind of experiment: Primary screen in NF54 nanoGlo assay, in single point, at 2uM, 72h; a lower Z score goes with more inhibition. Type of experiment: functional, Erythrocyte. Particulars: timepoint 72 hour.
Take `CCOC(=O)c1[nH]ncc1CN(CCN1CCCCC1)C[C@H]1CCCN(C2CCCC2)C1`: the “% Inhibition” value is -4% and the Z score came out at 0.62.
Consider `COC[C@@H]1CCCN1C(=O)c1cccc(-c2ccc3c(cnn3C)c2)c1`, for which the “% Inhibition” value was -7% and the Z score is 1.6.
For the molecule `Cc1ccn(CC(=O)N2CCCC3OC(c4ccccc4)CC32)c(=O)c1` (stereo unspecified), the “% Inhibition” value was -13% and the Z score is on record as 2.22.
Take `CCc1nc2c(c(N3CCC(Oc4ccncc4)CC3)n1)CCNCC2`: the “% Inhibition” value is 5% and the Z score is recorded as -0.92.
`Cc1ccc2ncccc2c1CN(C)C1CCOCC1`: the “% Inhibition” value is -11% and the Z score was found to be 1.89.
The like results for `O=C(c1cccc(-c2cncc(C(=O)N3CCCC3)n2)c1)N1CCCNCC1` were, in that order, 7% and -0.99.
The like results for `CC(C)c1nc(NC[C@@H](c2cccnc2)N2CCCCC2)c2cnn(C)c2n1` were, in that order, 0% and -0.03.
Take `CN(CC(=O)N1CCN(C2CCOCC2)CC1)C1CCNCC1`: the “% Inhibition” value is on record as -2% and the Z score is 0.39.
`CN1CCC[C@@H](CNc2cc(NCC3CC3)ncn2)[C@@H]1c1cncn1C`: the “% Inhibition” value is -3% and the Z score is given as 0.57.
As to `O[C@@H](Cc1ccccc1)c1ccc2c(c1)CN(Cc1cccc3ncccc13)CCO2`, the “% Inhibition” value is on record as 17% and the Z score is on record as -2.92.
Turning to `N[C@H]1CC[C@@H](NC2CCN(c3ccc(F)c(F)c3)CC2)CC1`, the “% Inhibition” value is 53% and the Z score is on record as -9.21.
Consider `O=C(CC1CC2CCC1C2)NCCCOC1CCCCC1` (stereo unspecified), for which the “% Inhibition” value was 6% and the Z score is given as -1.22.
Taken in the same sequence, the figures for `Cc1ncn(C)c1C(=O)N1CC[C@](C(=O)O)(c2ccccc2)C1` were -13% and 2.73.
With `c1ccc(-c2noc([C@@H]3CCCN3c3ncnc4sccc34)n2)cc1`, the “% Inhibition” value is listed as -1% and the Z score is 0.09.
As for `CN(CCCNc1nccc2ncncc12)CC(F)(F)F`, the “% Inhibition” value is -2% and the Z score worked out at 0.32.
On to `O[C@@H]1CC(c2nnc[nH]2)C[C@@H]1CNCc1cccc(-c2ccccn2)c1` (stereo partly specified), for which the “% Inhibition” value is reported as 2% and the Z score is -0.37.
As for `OC1CNCCC1Nc1ncnc2[nH]ccc12` (stereo unspecified), the “% Inhibition” value is recorded as -5% and the Z score is 1.01.
With `Cc1nn(CCCNC(=O)C[C@H]2CNCCO2)c(C)c1C`, the “% Inhibition” value is reported as -2% and the Z score was 0.35.
For `O=c1[nH]c(NCCCNc2cccnc2)nc2c1CCNC2`, the “% Inhibition” value is -11% and the Z score is 2.19.
Taken in the same sequence, the figures for `CN(C)c1nccc([C@@H]2CN(c3cc(NC4CC4)ncn3)CCO2)n1` were 9% and -1.83.
In the case of `OC1CN(c2ccnc3ccccc23)CCC1N1CCN(c2ccccn2)CC1` (stereo unspecified), the “% Inhibition” value was -7% and the Z score is recorded as 1.2.
Regarding `CCOc1ccc(CN2CCN(c3nc(C)cc(NC)n3)C[C@@H]2CCO)cc1`, the “% Inhibition” value is given as -5% and the Z score worked out at 0.82.
Regarding `CO[C@H]1C[C@@H](CN2CCCC2)N(C(=O)Nc2ccc3cc[nH]c(=O)c3c2)C1`, the “% Inhibition” value was 2% and the Z score is listed as -0.32.
As for `O=C(NC1CCN(Cc2cccs2)CC1)c1cccc(-c2cncnc2)c1`, the “% Inhibition” value is given as -2% and the Z score is on record as 0.35.
`COc1ccccc1-c1ccc(N(C)CCCn2nc(C)cc2C)nn1`: the “% Inhibition” value was -14% and the Z score came to 3.1.
Taken in the same sequence, the figures for `Cc1nn(C)c(C)c1CC(=O)NS(=O)(=O)c1ccc2[nH]ccc2c1` were 12% and -2.58.
With `CN(C)CC1CCN(C(=O)c2cccc(-c3cncc4ccccc34)c2)CC1O` (stereo unspecified), the “% Inhibition” value is listed as -8% and the Z score turned out to be 1.66.
Take `Cc1nc2[nH]c(=O)c(Br)cc2c(C)c1C`: the “% Inhibition” value is on record as -7% and the Z score stood at 1.14.
As for `CCN1CCC(NC(=O)CN2CCC(Oc3ccccn3)CC2)CC1`, the “% Inhibition” value is 9% and the Z score is listed as -2.04.
For `c1ccc(Nc2nc(-c3ccnc4ccnn34)no2)cc1`, the “% Inhibition” value is given as -9% and the Z score is 1.34.
In the case of `Cn1nnc2ccc(-c3ccc(N[C@H]4CCCC[C@@H]4O)nc3)cc21`, the “% Inhibition” value is -2% and the Z score worked out at 0.33.
Taken in the same sequence, the figures for `Cc1ccc(-c2cc(C(=O)N[C@H]3CCCN(C4CCN(C)CC4)C3)n[nH]2)s1` were 5% and -0.79.
For `Cc1noc(-c2ccnc(NC[C@@H](c3ccccn3)N3CCOCC3)c2)n1`, the “% Inhibition” value came to 95% and the Z score is recorded as -18.79.
Taken in the same sequence, the figures for `Cc1cc(N2CCC[C@H](N3CCN(c4ccccc4C)CC3)C2)nc(C(C)C)n1` were -7% and 1.48.
The like results for `COc1ccc(CN(C)C(=O)[C@@H]2CC3(CCNCC3)CN2C)c2cccnc12` were, in that order, -4% and 0.62.
`CNc1nc(NC(C)(C)CN2CCCCCC2)ncc1F`: the “% Inhibition” value is given as -9% and the Z score came out at 1.33.
With `COCCCn1ccc(N[C@@H](C)c2cc(C(F)(F)F)cc(C(F)(F)F)c2)n1`, the “% Inhibition” value is listed as -10% and the Z score is listed as 2.14.
The like results for `COc1ccc2nc(C)nc(NCc3ccc(C(=O)N4CC(C)OC(C)C4)cc3)c2c1` (stereo unspecified) were, in that order, -2% and 0.44.
As for `CCCc1nc(NCCC(=O)N2CCN(C(C)C)CC2)c2cnn(C)c2n1`, the “% Inhibition” value stood at 10% and the Z score is listed as -2.24.
In the case of `O=C(c1cccc(-c2ccc3nc[nH]c(=O)c3c2)c1)N1CCOC[C@@H]1CO`, the “% Inhibition” value was -10% and the Z score is listed as 1.8.
The like results for `CN(CCC#N)C[C@H](O)CN1CCc2[nH]c3ccc(F)cc3c2C1` were, in that order, -1% and 0.27.
Consider `C1CC2(CCN1)CCC(N1C3CCNCC1CC3)CC2` (stereo unspecified), for which the “% Inhibition” value is reported as -7% and the Z score was 1.39.
Taken in the same sequence, the figures for `Cc1nccc(C2CCN(CCN3CCN(c4ccccc4)CC3)CC2)n1` were 1% and -0.11.
For the molecule `CCOc1ccc2nc(-c3ncc[nH]3)ccc2c1`, the “% Inhibition” value is on record as -3% and the Z score was determined as 0.47.
Taken in the same sequence, the figures for `Cn1cnnc1-c1cccc(NCc2cccc(-c3ccncc3)c2)c1` were -7% and 1.52.
As to `Cc1cc(-c2nc3ccccc3[nH]2)nc2ccccc12`, the “% Inhibition” value is reported as -10% and the Z score amounted to 1.78.
For the molecule `CN(c1cc(C#N)ccn1)S(=O)(=O)c1ccccc1S(C)(=O)=O`, the “% Inhibition” value is on record as -7% and the Z score came out at 1.27.
Turning to `CCN1CCC(N2CCC(C(=O)NCCc3ccc(OC(F)(F)F)cc3)CC2)CC1`, the “% Inhibition” value is on record as 43% and the Z score is listed as -7.72.
Consider `CC(C)(CC(=O)O)NS(=O)(=O)c1ccc2c(c1)OC(F)(F)O2`, for which the “% Inhibition” value is -11% and the Z score is given as 2.2.
The like results for `NS(=O)(=O)Cc1cccc(NC(=O)c2cc(F)cc3c(=O)c4cccc(F)c4[nH]c23)c1` were, in that order, -8% and 1.68.
Taken in the same sequence, the figures for `O=C(NCCn1ncc2ccccc2c1=O)N1CCC[C@H](c2ccncn2)C1` were -12% and 2.55.
For `COc1cc(C(C)NCc2ccncc2O[C@H]2CCNC2)c(F)cn1` (stereo partly specified), the “% Inhibition” value is -8% and the Z score is 1.28.
As to `c1cc(N2CCN(CC3CCNCC3)CC2)ccn1`, the “% Inhibition” value is on record as -2% and the Z score is given as 0.37.
Take `CCNC(=O)N1CCC(NCCc2c[nH]c3cc(Cl)ccc23)CC1`: the “% Inhibition” value was determined as 0% and the Z score stood at 0.09.
For `FC(F)Oc1cc(CNc2ncnc3[nH]ncc23)ccn1`, the “% Inhibition” value is 15% and the Z score is reported as -2.63.
Turning to `c1ccc(-c2cc(-c3c(-c4ccccc4)cn4c3sc3ccccc34)c(-c3ccccc3)nn2)cc1`, the “% Inhibition” value is -7% and the Z score is 1.1.
The like results for `Nc1cc(N2CCN(CCOc3ccccc3)CC2)nc(N2CCOCC2)n1` were, in that order, 3% and -0.56.
For `CC1(C)CC(NC[C@H](O)COc2cc(C(C)(C)C)c(O)c(C(C)(C)C)c2)CC(C)(C)N1`, the “% Inhibition” value stood at 8% and the Z score is -1.38.
Regarding `CN1CCN(CCNCc2sc3ccccc3c2Cl)CC1`, the “% Inhibition” value is 1% and the Z score is -0.16.
On to `Cc1ccc2nc(Nc3cccc(F)c3)c(-c3noc(C(C)C)n3)cc2c1`, for which the “% Inhibition” value is given as -14% and the Z score worked out at 2.37.
As for `COc1ccc2c(C)cc(NCCCN3CCC[C@H](C(N)=O)C3)nc2c1`, the “% Inhibition” value amounted to 57% and the Z score was -8.7.
As to `CC1(C)CC(Nc2nccc(-c3cnn(-c4ccccc4)c3)n2)CC(C)(C)N1`, the “% Inhibition” value is listed as 13% and the Z score is -2.6.
Turning to `C[C@H](NCc1cc(-c2ccccc2)on1)c1cc(F)ccc1N1CCC(O)CC1`, the “% Inhibition” value is -4% and the Z score is 0.9.
`COCCn1nc(C)c(CNc2cc(C#N)nc3ccccc23)c1C`: the “% Inhibition” value was -4% and the Z score was found to be 0.8.
For `CC(C)C[C@@H](CNc1cc(-n2ccnc2)ncn1)N1CCOCC1`, the “% Inhibition” value is -1% and the Z score worked out at 0.22.
On to `CCOC(=O)COc1ccc([C@H](C)NS(=O)(=O)N2CCC(C)CC2)cc1OC`, for which the “% Inhibition” value stood at 2% and the Z score is on record as -0.33.
With `CC[C@H]1CCCCN1CCCNC(=O)CC1CCN(C(=O)c2cc3cc(Cl)ccc3[nH]2)CC1`, the “% Inhibition” value is 1% and the Z score is reported as -0.12.
For `OC1CCN(c2cccc(Nc3nccc(C(F)(F)F)n3)c2)CC1`, the “% Inhibition” value is on record as -3% and the Z score was determined as 0.57.
Taken in the same sequence, the figures for `N#Cc1cccc(Cl)c1N1CCCN(C2CCOCC2)CC1` were -7% and 1.19.
Taken in the same sequence, the figures for `CC(C)CN1CCC(CNCc2ccc(C#CC(C)(C)O)s2)CC1` were 0% and 0.04.
The like results for `Cc1cc(C)c(CN2CCN(C)CC2)cc1CNCCCn1ccnc1C` were, in that order, 42% and -6.34.
With `Cc1nc([C@H](C)NC(=O)Nc2ccccc2OC(F)(F)F)n[nH]1`, the “% Inhibition” value was -1% and the Z score came to 0.19.
`COCCOC1CCN(Cc2cccc(OC[C@@H](O)CN(C)C3CCCCC3)c2)CC1`: the “% Inhibition” value is -5% and the Z score came out at 0.85.
With `COCCN(C)c1ccc(CN[C@@H](C)CN2CCN(C)CC2)cn1`, the “% Inhibition” value is listed as -4% and the Z score was found to be 0.64.
Regarding `CCn1nc(C(C)C)cc1C(=O)Nc1ccc(CC(=O)NC2CC2)cc1`, the “% Inhibition” value came out at 3% and the Z score is -0.75.
With `c1cc2c(cc1-c1cnc3c(c1)OCCO3)CCN2`, the “% Inhibition” value was -5% and the Z score is listed as 1.01.
The like results for `COC(=O)c1nc(Nc2cccc(Cl)c2)oc1N` were, in that order, -4% and 0.7.
As for `CC(=O)Nc1ccc2nc(CNCCNc3ccncc3C)ccc2c1`, the “% Inhibition” value was -5% and the Z score is given as 0.96.
With `c1ccc([C@H]2CCN(CCNCc3cccc4cc[nH]c34)C2)cc1`, the “% Inhibition” value was -1% and the Z score was 0.27.
For `CC1CN(c2ccc(Nc3ncnc4ccccc34)cc2F)CC(C)O1` (stereo unspecified), the “% Inhibition” value is -12% and the Z score was 2.5.
Turning to `c1cnc2[nH]cc(C3CCN(c4ccc5nccn5n4)CC3)c2c1`, the “% Inhibition” value came to 9% and the Z score is recorded as -1.51.
Turning to `Cc1cc(CC2CN(CCCN3CCN(c4cccc(Cl)c4)CC3)CC2O)on1` (stereo unspecified), the “% Inhibition” value was -6% and the Z score is listed as 1.34.
The like results for `CN(CCNC(=O)[C@H](Cc1cn(Cc2ccccc2)cn1)NC(=O)OC(C)(C)C)C1CC1` were, in that order, 5% and -0.8.

Source of the values: ChEMBL document CHEMBL5308541, “MAIP: An Open-Source Tool to Enrich High-Throughput Screening Output and Identify Novel, Druglike Molecules with Antimalarial Activity” (ACS Med Chem Lett, 2023).
